Assay results taken from the supplement of paper PMC12217912.
Some of the results follow. The full chains were built here from the parent and the listed change. Inactive controls read about 0.05.

B1: TEV protease; numbered along this chain (parent)
chain: MGESLFKGPRDYNPISSSICHLTNESDGHTTSLYGIGFGPFIITNKHLFRRNNGTLVVQSLHGVFKVKDTTTLQQHLVDGRDMIIIRMPKDFPPFPQKLKFREPQREERICLVTTNFQTKSMSSMVSDTSCTFPSGDGIFWKHWIQTKDGQCGSPLVSTRDGFIVGIHSASNFTNTNNYFTSVPKNFMELLTNQEAQQWVSGWRLNADSVLWGGHKVFMVKPEEPFQPVKEATQL

Variants of: B1
Assay: raw area under fraction-flipped curve 0-4 h after induction (AUC4h, not background-subtracted), DNA-recorder readout of cleavage of the substrate (dimensionless); higher = more cleavage of the substrate by the protease variant
Settings: temperature: 34 °C; time window: 0-4 h after rhamnose induction
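Further: Bxb1 expression induced with 0.2% (w/v) L-rhamnose at OD600 near 0.5, cultures sampled hourly, flipped fraction per protease–substrate barcode pair counted by paired-end Illumina sequencing.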

Question: For MGESLFKGPRDYNPISSSICHLTNESDGHTTSLYGIGFGPFIITNKHLFRRNNGTLVTQSLHGVFKVKDTTTLQQHLVDGRDMIIIRMPKDFPPFPQKLKFREPQREERICLVTTNFQTKSMSSMVSDTSCTFPSGDGIFWKHWIQTKDGQCGSPLVSTRDGFIVGIHSASNFTNTNNYFTSVPKNFMELLTNQEAQQWVSGWRLNADSVLWGGHKVFMVKPEEPFQPVKEATQL [V58T], which “area with substrate ENLYFQD” value is on record?
Answer: Its value is 0.104.

Question: And the “area with substrate ENLYFQL” value?
Answer: The value was 0.0516.

Question: What about the “area with substrate ENLYFQR” value of the same variant?
Answer: Its value is 0.0564.

Question: And the “area with substrate ENLYFQS” value?
Answer: Its value is 0.106.

Question: Which “area with substrate ENLYFQD” value does the source give for MGESLFKGPRDYNPISSSICHLTNESDGHTTSLYGIGFGPFIITNKHLFRRNNGTLVVQSLHGVFKVKDTTTLQQHLVDGRDMIIIRMPKDFPPFPQKLKYREPQREERICLVTTNFQTKSMSSMVSDTSCTFPSGDGIFWKHWIQTKDGQCGSPLVSTRDGFIVGIHSASNFTNTNNYFTSVPKNFMELLTNQEAQQWVSGWRLNADSVLWGGHKVFMVKPEEPFQPVKEATQL [F101Y] here?
Answer: The value was 0.0636.

Question: What about the “area with substrate ENLYFQH” value of the same variant?
Answer: The value was 0.101.

Question: What about the “area with substrate ENLYFQL” value of the same variant?
Answer: The value was 0.0489.

Question: And the “area with substrate ENLYFQR” value?
Answer: The value was 0.0483.

Question: What about the “area with substrate ENLYFQS” value of the same variant?
Answer: The value was 0.0817.

Question: And the “area with substrate ENLYFQT” value?
Answer: Its value is 0.0508.

Question: What about the “area with substrate ENLYFQV” value of the same variant?
Answer: Its value is 0.0555.

Question: What does the source list for MGESLFKGPRDYNPISSSICHLTNESDGHTTSLYGIGFGPFIITNKHLFRRNNGTLVVQSLHGVFKVKDTTTLQQHLVDGRDMIIIRMPKDFPPFPQKLKFREPQREERICLVTTNFQTKSMSSMVSDTSCTFPSGDGIFWKHWIQTKDGQCGSPLVSTRDGFIVGIHSASNFTNTNNYFTSVPKNFMELLTNQEAQQWVSGWRLNADSVLWGGHKVFKVKPEEPFQPVKEATQL [M219K]?
Answer: area with substrate ENLYFQC: 0.0594; area with substrate ENLYFQG: 0.0672; area with substrate ENLYFQI: 0.0547; area with substrate ENLYFQK: 0.0635; area with substrate ENLYFQL: 0.0492; area with substrate ENLYFQM: 0.0637; area with substrate ENLYFQN: 0.0553; area with substrate ENLYFQP: 0.0662; area with substrate ENLYFQR: 0.0479; area with substrate ENLYFQS: 0.0697; area with substrate ENLYFQT: 0.0835; area with substrate ENLYFQY: 0.0574

Question: What does the source list for MGESLFKGPRDYNPISSSICHLTNESDGHTTSLYGIGFGPFIITNKHLFRRNNGTLVVQSLHGVFKVKDTTTLQQHLTDGRDMIIIRMPKDFPPFPQKLKFREPQREERICLVTTNFQTKSMSSMVSDTSCTFPSGDGIFWKHWIQTKDGQCGSPLVSTRDGFIVGIHSASNFTNTNNYFTSVPKNFMELLTNQEAQQWVSGWRLNADSVLWGGHKVFMVKPEEPFQPVKEATQL [V78T]?
Answer: area with substrate ENLYFQD: 0.0564; area with substrate ENLYFQG: 0.0743; area with substrate ENLYFQI: 0.0553; area with substrate ENLYFQL: 0.0544; area with substrate ENLYFQQ: 0.0819; area with substrate ENLYFQR: 0.0593; area with substrate ENLYFQS: 0.0897; area with substrate ENLYFQV: 0.0409; area with substrate ENLYFQW: 0.0554

Question: Which “area with substrate ENLYFQC” value does the source give for MGESLFKGPRDYNPISSSICHLTNESDGHTTSLYGIGFGPFIITNKHLFRRNNGTLVVQSLHGVFKVKDTTTLQQHLVDGRDMIIIRMPKDFPPFPQKLKFREPQREERICLVTTNFQTKSMSSMVSDTSCTFPSGDGIFWKHWIQTKDGQCGSPLVSTRDGFIVGIHSASNFTNTNNYFTSVPKNFMELLTNQEAQQWVSGWRLNADSVLWGGHKVDMVKPEEPFQPVKEATQL [F218D] here?
Answer: The value was 0.1.

Question: What about the “area with substrate ENLYFQD” value of the same variant?
Answer: The value was 0.0605.

Question: And the “area with substrate ENLYFQF” value?
Answer: The value was 0.0869.

Question: What about the “area with substrate ENLYFQG” value of the same variant?
Answer: The value was 0.155.

Question: What about the “area with substrate ENLYFQI” value of the same variant?
Answer: Its value is 0.0329.

Question: What about the “area with substrate ENLYFQM” value of the same variant?
Answer: Its value is 0.0749.

Question: And the “area with substrate ENLYFQR” value?
Answer: The value was 0.0511.

Question: And the “area with substrate ENLYFQS” value?
Answer: Its value is 0.095.

Question: And the “area with substrate ENLYFQT” value?
Answer: Its value is 0.0654.

Question: What about the “area with substrate ENLYFQW” value of the same variant?
Answer: The value was 0.0603.

Question: What about the “area with substrate ENLYFQY” value of the same variant?
Answer: The value was 0.067.

Question: For MGESLFKGPRDYNPISSSICHLTNESDGHTTSLYGIGFGPFIITNKHLFRRNNGTLVVQSLHGVFKVKDTHTLQQHLVDGRDMIIIRMPKDFPPFPQKLKFREPQREERICLVTTNFQTKSMSSMVSDTSCTFPSGDGIFWKHWIQTKDGQCGSPLVSTRDGFIVGIHSASNFTNTNNYFTSVPKNFMELLTNQEAQQWVSGWRLNADSVLWGGHKVFMVKPEEPFQPVKEATQL [T71H], which “area with substrate ENLYFQD” value is on record?
Answer: The value was 0.0757.

Question: What about the “area with substrate ENLYFQG” value of the same variant?
Answer: The value was 0.0739.

Question: What about the “area with substrate ENLYFQI” value of the same variant?
Answer: The value was 0.055.

Question: And the “area with substrate ENLYFQK” value?
Answer: Its value is 0.0479.

Question: And the “area with substrate ENLYFQL” value?
Answer: Its value is 0.0647.

Question: And the “area with substrate ENLYFQN” value?
Answer: The value was 0.0625.

Question: What about the “area with substrate ENLYFQP” value of the same variant?
Answer: Its value is 0.0701.

Question: And the “area with substrate ENLYFQR” value?
Answer: Its value is 0.0815.

Question: And the “area with substrate ENLYFQS” value?
Answer: Its value is 0.0895.

Question: Which “area with substrate ENLYFQD” value does the source give for MGESLFKGPRDYNPISSSICHLTNESDGHTTSLYGIGFGPFIITNKHLFRRNNGTLVVQSLHGVFKVKDTYTLQQHLVDGRDMIIIRMPKDFPPFPQKLKFREPQREERICLVTTNFQTKSMSSMVSDTSCTFPSGDGIFWKHWIQTKDGQCGSPLVSTRDGFIVGIHSASNFTNTNNYFTSVPKNFMELLTNQEAQQWVSGWRLNADSVLWGGHKVFMVKPEEPFQPVKEATQL [T71Y] here?
Answer: Its value is 0.0694.

Question: What about the “area with substrate ENLYFQE” value of the same variant?
Answer: Its value is 0.0554.

Question: And the “area with substrate ENLYFQG” value?
Answer: Its value is 0.0868.

Question: What about the “area with substrate ENLYFQH” value of the same variant?
Answer: The value was 0.0737.

Question: And the “area with substrate ENLYFQK” value?
Answer: The value was 0.0744.

Question: What about the “area with substrate ENLYFQN” value of the same variant?
Answer: The value was 0.0515.

Question: And the “area with substrate ENLYFQR” value?
Answer: The value was 0.0651.

Question: And the “area with substrate ENLYFQS” value?
Answer: Its value is 0.081.

Question: And the “area with substrate ENLYFQV” value?
Answer: Its value is 0.0436.

Question: And the “area with substrate ENLYFQY” value?
Answer: The value was 0.0844.

Question: For MGESLFKGPRDYNPISSSICHLTNESDGHTTSLYGIGFGPFIITNKHLFRRNNGTLAVQSLHGVFKVKDTTTLQQHLVDGRDMIIIRMPKDFPPFPQKLKFREPQREERICLVTTNFQTKSMSSMVSDTSCTFPSGDGIFWKHWIQTKDGQCGSPLVSTRDGFIVGIHSASNFTNTNNYFTSVPKNFMELLTNQEAQQWVSGWRLNADSVLWGGHKVFMVKPEEPFQPVKEATQL [V57A], which “area with substrate ENLYFQD” value is on record?
Answer: Its value is 0.0779.

Question: And the “area with substrate ENLYFQE” value?
Answer: The value was 0.0709.

Question: And the “area with substrate ENLYFQF” value?
Answer: Its value is 0.0738.

Question: And the “area with substrate ENLYFQG” value?
Answer: The value was 0.101.

Question: And the “area with substrate ENLYFQH” value?
Answer: The value was 0.0731.

Question: And the “area with substrate ENLYFQK” value?
Answer: The value was 0.0504.

Question: What about the “area with substrate ENLYFQL” value of the same variant?
Answer: Its value is 0.0206.

Question: What about the “area with substrate ENLYFQN” value of the same variant?
Answer: The value was 0.0747.

Question: And the “area with substrate ENLYFQP” value?
Answer: Its value is 0.0533.

Question: And the “area with substrate ENLYFQR” value?
Answer: Its value is 0.0658.

Question: What about the “area with substrate ENLYFQS” value of the same variant?
Answer: The value was 0.104.

Question: And the “area with substrate ENLYFQV” value?
Answer: The value was 0.0732.

Question: What about the “area with substrate ENLYFQW” value of the same variant?
Answer: Its value is 0.0625.

Question: With MGESLFKGPRDYNPISSSICHLTNESDGHTTSLYGIGFGPFIITNKHLFRRNNGTLVVQSLHGVFKVKDTTTLQQHLVDGRDMIIIRMPKDFPPFPQKLKFREPQREERICLVTTNFQTKSMSSMVSDTSCTFPSGDGIFWKHWIQTKDGQCGSPLVSTRDGFIVGIHSASNFTNTNNYFTSVPKNFMELLTNQEAQQWVSGWRLNADSVLWGGHKVFMVKPEEPFRPVKEATQL [Q227R] as the variant, how does the “area with substrate ENLYFQC” value read?
Answer: The value was 0.103.

Question: What about the “area with substrate ENLYFQG” value of the same variant?
Answer: The value was 0.0746.

Question: What about the “area with substrate ENLYFQI” value of the same variant?
Answer: Its value is 0.0728.

Question: And the “area with substrate ENLYFQK” value?
Answer: The value was 0.0653.

Question: And the “area with substrate ENLYFQN” value?
Answer: Its value is 0.0901.

Question: And the “area with substrate ENLYFQS” value?
Answer: Its value is 0.101.

Question: And the “area with substrate ENLYFQT” value?
Answer: Its value is 0.0981.

Question: And the “area with substrate ENLYFQV” value?
Answer: Its value is 0.0674.

Question: What about the “area with substrate ENLYFQW” value of the same variant?
Answer: The value was 0.0527.

Question: And the “area with substrate ENLYFQY” value?
Answer: The value was 0.04.
